Here are results for 30 compounds from the antibiotic and cytotoxicity screens of Wong et al. (2023).

Assay [1] deals with HSkMC (human skeletal muscle cells). Put plainly: cytotoxicity call (relative viability < 0.9). To be noted: 10 µM.
For assay [2], the system named is S. aureus RN4220. Put plainly: growth inhibition call (relative growth <= 0.2). To be noted: 50 µM.

Some of the results follow.

Turning to `C[C@H](CO)N1C[C@H](C)[C@H](CN(C)Cc2ccc(C(F)(F)F)cc2)OCCCC[C@H](C)Oc2ccc(NC(=O)Cc3ccccc3)cc2C1=O`, the cytotoxicity call in assay [1] is “inactive”. The growth inhibition call in assay [2] was “inactive”.
On to `C[C@@H]1CCCCO[C@@H](CN(C)CC2CCCCC2)[C@H](C)CN([C@@H](C)CO)C(=O)c2cc(NC(=O)Nc3ccccc3)ccc2O1`, for which, in assay [1], the cytotoxicity call was “inactive”. Further, the growth inhibition call in assay [2] is “inactive”.
Regarding `NC(=O)Cn1nnc(-c2ccccc2)n1`, the cytotoxicity call in assay [1] is “inactive”. Moreover, the growth inhibition call in assay [2] is “inactive”.
`O=C(C[C@@H]1C[C@@H]2c3cc(NS(=O)(=O)c4ccc(F)cc4)ccc3O[C@@H]2[C@H](CO)O1)NCc1ccc(Oc2ccccc2)cc1`: in assay [1], the cytotoxicity call is “inactive”. For the same compound, the growth inhibition call in assay [2] is “inactive”.
For `O=C(C[C@@H]1C[C@@H]2c3cc(NC(=O)c4ccc5c(c4)OCO5)ccc3O[C@@H]2[C@H](CO)O1)NCC(F)(F)F`, in assay [1], the cytotoxicity call was “inactive”. Moreover, the growth inhibition call in assay [2] was “inactive”.
As to `C[C@H](CO)N1C[C@H](C)[C@H](CN(C)C(=O)Nc2ccc(F)cc2)OCCCC[C@H](C)Oc2ccc(NC(=O)C3CCC3)cc2C1=O`, the cytotoxicity call in assay [1] was “inactive”. For the same compound, the growth inhibition call in assay [2] is “inactive”.
Turning to `C[C@H]1CN([C@@H](C)CO)C(=O)c2cc(NC(=O)NC3CCCCC3)ccc2O[C@@H]1CN(C)S(=O)(=O)c1cn(C)cn1`, in assay [1], the cytotoxicity call is “inactive”. Also, in assay [2], the growth inhibition call is “inactive”.
For the compound `COc1ccc(CN(C)C[C@@H]2Oc3c(NS(=O)(=O)c4cn(C)cn4)cccc3C(=O)N([C@H](C)CO)C[C@H]2C)cc1`, the cytotoxicity call in assay [1] was “inactive”. Also, in assay [2], the growth inhibition call is “inactive”.
As to `C[C@@H]1CN([C@H](C)CO)C(=O)c2cccc(NC(=O)C3CCOCC3)c2O[C@@H]1CN(C)Cc1ccncc1`, the cytotoxicity call in assay [1] was “inactive”. In addition, in assay [2], the growth inhibition call was “inactive”.
`COc1ccc(NC(=O)N(C)C[C@H]2Oc3ccc(NC(=O)C4CC4)cc3CC(=O)N([C@H](C)CO)C[C@@H]2C)cc1`: the cytotoxicity call in assay [1] is “inactive”. In assay [2], the growth inhibition call is “inactive”.
Regarding `COc1ccc(NC(=O)Nc2ccc3c(c2)CC(=O)N([C@@H](C)CO)C[C@H](C)[C@@H](CN(C)Cc2ccc(-c4ccccc4)cc2)O3)cc1`, the cytotoxicity call in assay [1] was “inactive”. Further, the growth inhibition call in assay [2] is “inactive”.
With `C[C@@H]1CCCCO[C@H](CN(C)C(=O)Nc2ccc(C(F)(F)F)cc2)[C@@H](C)CN([C@H](C)CO)C(=O)c2cc(NS(=O)(=O)c3ccc(F)cc3)ccc2O1`, the cytotoxicity call in assay [1] is “inactive”. Further, the growth inhibition call in assay [2] is “inactive”.
Turning to `C[C@H]1CN([C@@H](C)CO)S(=O)(=O)c2ccc(C#CCN(C)C)cc2O[C@H]1CN(C)C(=O)c1ccccc1F`, in assay [1], the cytotoxicity call was “inactive”. Further, the growth inhibition call in assay [2] was “inactive”.
For `CCS(=O)(=O)NCC[C@@H]1CC[C@@H](NC(=O)C2CC2)[C@@H](CO)O1`, the cytotoxicity call in assay [1] was “inactive”. In addition, in assay [2], the growth inhibition call is “inactive”.
For `C[C@H]1CN([C@@H](C)CO)C(=O)c2cc(C#CC3(O)CCCC3)cnc2O[C@@H]1CN(C)S(=O)(=O)c1ccc(F)cc1`, the cytotoxicity call in assay [1] is “inactive”. Moreover, the growth inhibition call in assay [2] was “inactive”.
Regarding `CC[C@H]1OC(=O)[C@H](C)[C@@H](O[C@H]2C[C@@](C)(OC)[C@@H](O)[C@H](C)O2)[C@H](C)[C@@H](O[C@@H]2O[C@H](C)C[C@H](N(C)C)[C@H]2O)[C@](C)(O)C[C@@H](C)[C@@H]2N[C@@H](COCCOC)O[C@H]([C@H]2C)[C@]1(C)O`, the cytotoxicity call in assay [1] is “inactive”. For the same compound, the growth inhibition call in assay [2] is “active”.
For `NNC(=O)Cc1nc2ccccc2[nH]1`, in that order: “inactive” and “inactive”.
In the same order, the values of `COc1ccc(S(=O)(=O)N[C@H]2CC[C@@H](CCNC(=O)CN3CCOCC3)O[C@@H]2CO)cc1` are “inactive” and “inactive”.
For the compound `Cc1ccc(S(=O)(=O)Nc2cccc3c2O[C@@H](CN(C)Cc2ccc(Cl)c(Cl)c2)[C@@H](C)CN([C@@H](C)CO)C3=O)cc1`, in assay [1], the cytotoxicity call is “inactive”. Also, the growth inhibition call in assay [2] is “inactive”.
For `Cc1noc(C)c1S(=O)(=O)N(C)C[C@H]1Oc2ccc(NC(=O)CCC(F)(F)F)cc2CC(=O)N([C@@H](C)CO)C[C@@H]1C`, the cytotoxicity call in assay [1] was “inactive”. The growth inhibition call in assay [2] was “inactive”.
As for `C[C@@H]1CN([C@H](C)CO)C(=O)c2cc(NC(=O)Nc3cccc4ccccc34)ccc2O[C@@H]1CN(C)S(=O)(=O)c1ccc(F)cc1`, the cytotoxicity call in assay [1] was “inactive”. Besides, the growth inhibition call in assay [2] was “inactive”.
Consider `C[C@H]1CN([C@@H](C)CO)C(=O)c2cccc(NC(=O)Nc3ccc4c(c3)OCO4)c2O[C@@H]1CN(C)Cc1ccc(Cl)c(Cl)c1`, for which, in assay [1], the cytotoxicity call was “inactive”. Moreover, the growth inhibition call in assay [2] is “inactive”.
With `C[C@H](CO)N1C[C@H](C)[C@H](CN(C)Cc2ccc(C(F)(F)F)cc2)Oc2ccc(NC(=O)Cc3ccccc3)cc2CC1=O`, in assay [1], the cytotoxicity call is “inactive”. In addition, the growth inhibition call in assay [2] was “inactive”.
`C[C@H](CO)N1C[C@H](C)[C@@H](CN(C)Cc2ccc(Oc3ccccc3)cc2)Oc2ccc(NC(=O)Nc3ccc(C(F)(F)F)cc3)cc2C1=O`: the cytotoxicity call in assay [1] is “active”. Also, the growth inhibition call in assay [2] was “inactive”.
In the same order, the values of `CO[C@H]1CN(C)C(=O)c2cc(NC(=O)Nc3cccc(Cl)c3)ccc2OC[C@@H](C)N(C(=O)Nc2c(C)noc2C)C[C@@H]1C` are “inactive” and “inactive”.
In the same order, the values of `C[C@H](CO)N1C[C@H](C)[C@@H](CN(C)Cc2ccc(C(=O)O)cc2)Oc2ccc(NC(=O)Nc3ccc(C(F)(F)F)cc3)cc2C1=O` are “inactive” and “inactive”.
For `Cc1ccccc1OC[C@@H](O)CO`, in that order: “inactive” and “inactive”.
As for `COc1ccc(-c2c(O)c3c(OC)c4c(cc3oc2=O)OC(C)(C)C=C4)cc1`, in assay [1], the cytotoxicity call was “inactive”. The growth inhibition call in assay [2] is “inactive”.
Consider `C[C@H]1CN([C@@H](C)CO)C(=O)Cc2cc(NC(=O)Nc3ccc(C(F)(F)F)cc3)ccc2O[C@@H]1CN(C)C(=O)NC1CCCCC1`, for which, in assay [1], the cytotoxicity call was “inactive”. Moreover, the growth inhibition call in assay [2] was “inactive”.
For the compound `CC(=O)n1nc(-c2cccnc2)nc1N`, the cytotoxicity call in assay [1] was “inactive”. Moreover, the growth inhibition call in assay [2] was “inactive”.
